Data: the supplement of paper PMC10369915
The other results are listed elsewhere or left out. Rule as the data show it: active = 3.2 or more and inactive = the rest. The signal is at background level for most entries.

How the values were obtained:
Assay in all cases: enrichment score (SH2-bound / input frequency) (ratio); bacterial display of known human phosphotyrosine sites (pTyr-Var adds point mutants) read by sequencing; higher = stronger binding; tyrosines were phosphorylated by kinases first
Conditions in all cases: peptide library: Human pTyr
[1] = target: SHP2 C-SH2 domain E139D
[2] = target: SHP2 C-SH2 domain wild-type
[3] = target: SHP2 N-SH2 domain L43F
[4] = target: SHP2 N-SH2 domain T42A
[5] = target: SHP2 N-SH2 domain T52S
[6] = target: SHP2 N-SH2 domain wild-type

Measured: enrichment score
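Also: displayed peptides selected on beads carrying the immobilized SH2 domain, with library peptides lacking any tyrosine serving as negative controls.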

AQDLARSYGIPYIET [HRAS_HUMAN_137]
inactive: [1] 0.727 | [2] 0.594 | [3] 0.611 | [4] 0.607 | [5] 0.619 | [6] 0.584

SGRAGPSYSMPVHAA [HLTF_HUMAN_195]
inactive: [1] 0.611 | [2] 0.925 | [3] 0.711 | [4] 0.69 | [5] 0.677 | [6] 0.722

IVKMLEKYLKGEDPF [AKAP8_HUMAN_539]
inactive: [1] 2.44 | [2] 2.35 | [3] 2.32 | [4] 2.28 | [5] 2.04 | [6] 3.08

NEEAGEFYKSLTNDW [HS90A_HUMAN_313_YA]
inactive: [1] 0.713 | [2] 0.744 | [3] 0.665 | [4] 0.683 | [5] 0.807 | [6] 0.747

EKATGRAYAMKILKK [AKT1_HUMAN_176_YA]
inactive: [1] 1.52 | [2] 1.53 | [3] 1.21 | [4] 1.12 | [5] 1.5 | [6] 1.71

VYFTYDPYSEEDPDE [IL2RB_HUMAN_387]
inactive: [1] 1.28 | [2] 1.17 | [3] 1.05 | [4] 1 | [5] 1.44 | [6] 1.57

NSGQPPNYEMLKEEH [IFITM3_HUMAN_20]
inactive: [1] 0.698 | [2] 0.594 | [3] 0.676 | [4] 0.612 | [5] 0.657 | [6] 1.2

KETQKSIYAITGESK [HS90B_HUMAN_484_YA]
inactive: [1] 1.15 | [2] 0.956 | [3] 0.945 | [4] 1.02 | [5] 1.04 | [6] 1.07

EAVVEEDYNENAKNG [HMGN5_HUMAN_76]
inactive: [1] 0.995 | [2] 1.26 | [3] 0.997 | [4] 1.03 | [5] 0.963 | [6] 0.845

GAGGADDYGGANDGA [HNRH2_HUMAN_246_YA]
inactive: [1] 0.609 | [2] 0.579 | [3] 0.473 | [4] 0.605 | [5] 0.521 | [6] 0.575

IDPELARYLNRNAWE [HGS_HUMAN_329_YA]
inactive: [1] 0.811 | [2] 0.549 | [3] 0.638 | [4] 0.612 | [5] 0.738 | [6] 0.805

TFCGTPEYLAPEVLE [AKT1_HUMAN_315]
inactive: [1] 1.12 | [2] 0.849 | [3] 1.26 | [4] 0.955 | [5] 1.1 | [6] 1.07

VAFTADPYSEEDPDE [IL2RB_HUMAN_387_YA]
inactive: [1] 1.19 | [2] 0.987 | [3] 1.11 | [4] 1.18 | [5] 1.16 | [6] 1.02

SGGKGGSYSQAACSD [HLA-B_HUMAN_344]
inactive: [1] 0.661 | [2] 0.498 | [3] 0.569 | [4] 0.675 | [5] 0.766 | [6] 0.732

SFEDIHQYREQIKRV [HRAS_HUMAN_96]
inactive: [1] 0.742 | [2] 0.679 | [3] 0.874 | [4] 0.603 | [5] 0.898 | [6] 0.699

GFREVSFYASEENKL [IGF1R_HUMAN_1280_YA]
inactive: [1] 0.842 | [2] 0.721 | [3] 0.689 | [4] 0.722 | [5] 0.83 | [6] 0.766

SFVGTLQYLAPELLE [IKBKB_HUMAN_188]
inactive: [1] 0.968 | [2] 0.698 | [3] 1.06 | [4] 0.979 | [5] 1.01 | [6] 0.733

DTAGQEEYSAMRDQA [HRAS_HUMAN_64_YA]
inactive: [1] 0.732 | [2] 0.58 | [3] 0.735 | [4] 0.586 | [5] 0.643 | [6] 0.7

CPFIDNTYSCSGKLL [HOIL1_HUMAN_330]
inactive: [1] 0.778 | [2] 0.837 | [3] 0.711 | [4] 0.886 | [5] 0.951 | [6] 0.94

DTAGQEEYSAMRDQY [HRAS_HUMAN_64]
inactive: [1] 0.5 | [2] 0.537 | [3] 0.58 | [4] 0.752 | [5] 0.754 | [6] 0.918

KETQKSIYYITGESK [HS90B_HUMAN_484]
inactive: [1] 1.14 | [2] 1.35 | [3] 1.12 | [4] 0.886 | [5] 0.966 | [6] 1.19

FYDETYDYGGFTMMF [HNRNPK_HUMAN_236]
inactive: [1] 1.8 | [2] 1.75 | [3] 1.91 | [4] 1.32 | [5] 1.64 | [6] 1.98

EDEPEGDYEEVLEPE [HCLS1_HUMAN_397]
inactive: [1] 0.864 | [2] 1.11 | [3] 0.974 | [4] 1.07 | [5] 0.887 | [6] 1.13

TTGATYSYGPASWEA [AKAP8_HUMAN_53]
inactive: [1] 0.721 | [2] 0.458 | [3] 0.709 | [4] 0.69 | [5] 0.711 | [6] 0.447

AAGGRGSYGDLGGPI [HNRPK_HUMAN_380_YA]
inactive: [1] 0.516 | [2] 0.528 | [3] 0.603 | [4] 0.558 | [5] 0.608 | [6] 0.522

SKAVCSTYLQSRAAR [HIPK2_HUMAN_361_YA]
inactive: [1] 0.851 | [2] 0.614 | [3] 0.811 | [4] 0.853 | [5] 0.896 | [6] 0.664

FADETADYGGFTMMF [HNRNPK_HUMAN_236_YA]
inactive: [1] 1.72 | [2] 1.56 | [3] 1.45 | [4] 1.52 | [5] 1.76 | [6] 1.68

IKALRTDYNASVSVP [HNRNPK_HUMAN_72]
inactive: [1] 0.696 | [2] 0.643 | [3] 0.642 | [4] 0.669 | [5] 0.598 | [6] 0.721

SDRKGGSYSQAASSD [HLA-A_HUMAN_344]
inactive: [1] 0.618 | [2] 0.661 | [3] 0.65 | [4] 0.747 | [5] 0.594 | [6] 0.742

IKGRAQPYDPNFYDE [HNRNPK_HUMAN_225]
inactive: [1] 0.804 | [2] 0.696 | [3] 0.843 | [4] 0.796 | [5] 0.777 | [6] 0.772

SAANPIIYNFLSGKF [HCRTR1_HUMAN_358]
inactive: [1] 1.58 | [2] 1.44 | [3] 1.48 | [4] 1.54 | [5] 1.66 | [6] 1.95

AKGFGGQYGIQKDRV [HCLS1_HUMAN_198]
inactive: [1] 0.979 | [2] 1.02 | [3] 0.927 | [4] 1.02 | [5] 0.97 | [6] 1.05

SKPPYTDYVSTRWYR [ICK_HUMAN_159]
inactive: [1] 1.49 | [2] 1.3 | [3] 1.42 | [4] 1.3 | [5] 1.27 | [6] 1.44

ARYLNRNYWEKKQEE [HGS_HUMAN_334]
inactive: [1] 1.27 | [2] 1.44 | [3] 0.997 | [4] 1.26 | [5] 1.26 | [6] 1.63

GMDNQGGYGSVGRMG [HNRH3_HUMAN_296]
inactive: [1] 0.675 | [2] 0.628 | [3] 0.613 | [4] 0.617 | [5] 0.668 | [6] 0.679

IKGRAQPYDPNFADE [HNRNPK_HUMAN_225_YA]
inactive: [1] 0.827 | [2] 0.615 | [3] 0.569 | [4] 0.602 | [5] 0.625 | [6] 0.803
